Results are given in words; binding and its absence hold for the method and conditions named. For some assays here: Binding seen in cells or lysates may run through a third protein. Some results given as binding are weak or reduced against the parent protein; the word gives no strength. For some assays here: Where a sequence is shown, tags or fusion partners need not be part of it.

Chains of the proteins cited; added tags and fusions are not shown.
UniProt O00560: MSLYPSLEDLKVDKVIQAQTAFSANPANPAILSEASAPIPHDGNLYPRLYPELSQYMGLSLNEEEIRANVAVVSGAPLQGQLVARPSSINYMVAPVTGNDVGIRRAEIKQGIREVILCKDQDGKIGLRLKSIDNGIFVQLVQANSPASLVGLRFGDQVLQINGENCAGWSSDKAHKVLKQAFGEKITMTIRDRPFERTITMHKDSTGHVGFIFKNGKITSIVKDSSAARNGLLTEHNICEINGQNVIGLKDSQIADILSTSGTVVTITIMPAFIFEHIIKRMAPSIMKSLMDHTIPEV
UniProt P54105: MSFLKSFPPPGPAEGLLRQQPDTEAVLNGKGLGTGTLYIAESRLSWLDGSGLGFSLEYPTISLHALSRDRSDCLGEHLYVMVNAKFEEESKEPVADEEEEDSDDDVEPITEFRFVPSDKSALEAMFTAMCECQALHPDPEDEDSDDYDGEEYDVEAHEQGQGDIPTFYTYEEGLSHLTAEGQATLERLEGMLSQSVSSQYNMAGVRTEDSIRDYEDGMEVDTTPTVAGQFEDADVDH

For one assay, the target named is T1, HA-tagged TBK1 (UniProt Q9UHD2).
T1 sequence: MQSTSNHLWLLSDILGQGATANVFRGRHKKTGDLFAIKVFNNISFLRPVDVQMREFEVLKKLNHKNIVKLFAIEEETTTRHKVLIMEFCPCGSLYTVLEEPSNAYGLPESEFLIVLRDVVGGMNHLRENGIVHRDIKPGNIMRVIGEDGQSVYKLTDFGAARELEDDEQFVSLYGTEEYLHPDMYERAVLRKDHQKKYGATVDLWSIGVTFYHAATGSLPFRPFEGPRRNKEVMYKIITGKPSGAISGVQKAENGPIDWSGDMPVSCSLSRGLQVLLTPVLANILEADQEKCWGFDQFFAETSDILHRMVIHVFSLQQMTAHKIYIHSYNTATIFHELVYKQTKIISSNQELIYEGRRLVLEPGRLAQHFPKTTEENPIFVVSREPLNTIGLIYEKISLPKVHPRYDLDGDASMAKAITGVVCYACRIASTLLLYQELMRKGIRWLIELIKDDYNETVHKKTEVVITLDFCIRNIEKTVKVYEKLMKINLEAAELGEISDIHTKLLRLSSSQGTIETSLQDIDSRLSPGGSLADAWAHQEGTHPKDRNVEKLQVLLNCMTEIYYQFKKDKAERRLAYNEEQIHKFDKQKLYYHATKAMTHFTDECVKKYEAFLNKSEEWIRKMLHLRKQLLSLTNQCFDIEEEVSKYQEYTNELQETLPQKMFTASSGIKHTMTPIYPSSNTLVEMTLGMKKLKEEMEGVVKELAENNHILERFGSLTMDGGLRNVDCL
The assay is described as follows: co-IP; reciprocal IP in co-transfected HEK293T: TBK1 precipitated, syntenin-1 detected by immunoblot (Fig. 1D). A general note: A western blot detects proteins with antibodies after separation by electrophoresis.

Assay [1] deals with Flag-tagged syntenin-1 (human) (UniProt O00560). Description: co-IP; HEK293T co-transfected; lysate with anti-Flag magnetic beads overnight at 4 °C (Flag-syntenin-1 precipitated); washed with 1% Triton X-100 in PBS; HA-tagged partner detected by immunoblot.
The target in assay [2] is endogenous syntenin-1 (A549) (human (endogenous in A549)) (UniProt O00560). The assay is described as follows: co-IP; endogenous proteins in A549 cells; IP with an anti-syntenin-1 antibody; TBK1 detected by immunoblot.
A further assay addresses GST-HA-CLNS1A (UniProt P54105). The assay is described as follows: pull-down; 0.5 μg HA-syntenin-1 or HA-CLNS1A held on anti-HA magnetic beads (20 mM Tris pH 7.5, 150 mM NaCl, 10% glycerol, 1 h at room temperature); 0.25 μg GST-TBK1 added, 4 °C overnight; washed with 1% Triton X-100 in PBS; Western blot and Coomassie staining; both purified.
Assay [3] concerns the target GST-HA-syntenin-1 (human) (UniProt O00560). The description is as above.

On to “Flag-tagged syntenin-1 (from UniProt O00560 1-298)”, for which, in the assay with HA-tagged TBK1, the binding result is reported as “binds”.

B1: HA-tagged TBK1 (enzyme, UniProt Q9UHD2 1-729)
chain: MQSTSNHLWLLSDILGQGATANVFRGRHKKTGDLFAIKVFNNISFLRPVDVQMREFEVLKKLNHKNIVKLFAIEEETTTRHKVLIMEFCPCGSLYTVLEEPSNAYGLPESEFLIVLRDVVGGMNHLRENGIVHRDIKPGNIMRVIGEDGQSVYKLTDFGAARELEDDEQFVSLYGTEEYLHPDMYERAVLRKDHQKKYGATVDLWSIGVTFYHAATGSLPFRPFEGPRRNKEVMYKIITGKPSGAISGVQKAENGPIDWSGDMPVSCSLSRGLQVLLTPVLANILEADQEKCWGFDQFFAETSDILHRMVIHVFSLQQMTAHKIYIHSYNTATIFHELVYKQTKIISSNQELIYEGRRLVLEPGRLAQHFPKTTEENPIFVVSREPLNTIGLIYEKISLPKVHPRYDLDGDASMAKAITGVVCYACRIASTLLLYQELMRKGIRWLIELIKDDYNETVHKKTEVVITLDFCIRNIEKTVKVYEKLMKINLEAAELGEISDIHTKLLRLSSSQGTIETSLQDIDSRLSPGGSLADAWAHQEGTHPKDRNVEKLQVLLNCMTEIYYQFKKDKAERRLAYNEEQIHKFDKQKLYYHATKAMTHFTDECVKKYEAFLNKSEEWIRKMLHLRKQLLSLTNQCFDIEEEVSKYQEYTNELQETLPQKMFTASSGIKHTMTPIYPSSNTLVEMTLGMKKLKEEMEGVVKELAENNHILERFGSLTMDGGLRNVDCL
As to B1, the binding result in assay [1] is recorded as “binds”.

B2: endogenous TBK1 (A549) (enzyme, UniProt Q9UHD2 1-729)
chain: MQSTSNHLWLLSDILGQGATANVFRGRHKKTGDLFAIKVFNNISFLRPVDVQMREFEVLKKLNHKNIVKLFAIEEETTTRHKVLIMEFCPCGSLYTVLEEPSNAYGLPESEFLIVLRDVVGGMNHLRENGIVHRDIKPGNIMRVIGEDGQSVYKLTDFGAARELEDDEQFVSLYGTEEYLHPDMYERAVLRKDHQKKYGATVDLWSIGVTFYHAATGSLPFRPFEGPRRNKEVMYKIITGKPSGAISGVQKAENGPIDWSGDMPVSCSLSRGLQVLLTPVLANILEADQEKCWGFDQFFAETSDILHRMVIHVFSLQQMTAHKIYIHSYNTATIFHELVYKQTKIISSNQELIYEGRRLVLEPGRLAQHFPKTTEENPIFVVSREPLNTIGLIYEKISLPKVHPRYDLDGDASMAKAITGVVCYACRIASTLLLYQELMRKGIRWLIELIKDDYNETVHKKTEVVITLDFCIRNIEKTVKVYEKLMKINLEAAELGEISDIHTKLLRLSSSQGTIETSLQDIDSRLSPGGSLADAWAHQEGTHPKDRNVEKLQVLLNCMTEIYYQFKKDKAERRLAYNEEQIHKFDKQKLYYHATKAMTHFTDECVKKYEAFLNKSEEWIRKMLHLRKQLLSLTNQCFDIEEEVSKYQEYTNELQETLPQKMFTASSGIKHTMTPIYPSSNTLVEMTLGMKKLKEEMEGVVKELAENNHILERFGSLTMDGGLRNVDCL
Regarding B2, the binding entry in assay [2] is reported as “binds”.

B3: GST-TBK1 (enzyme, UniProt Q9UHD2 1-729)
chain: MQSTSNHLWLLSDILGQGATANVFRGRHKKTGDLFAIKVFNNISFLRPVDVQMREFEVLKKLNHKNIVKLFAIEEETTTRHKVLIMEFCPCGSLYTVLEEPSNAYGLPESEFLIVLRDVVGGMNHLRENGIVHRDIKPGNIMRVIGEDGQSVYKLTDFGAARELEDDEQFVSLYGTEEYLHPDMYERAVLRKDHQKKYGATVDLWSIGVTFYHAATGSLPFRPFEGPRRNKEVMYKIITGKPSGAISGVQKAENGPIDWSGDMPVSCSLSRGLQVLLTPVLANILEADQEKCWGFDQFFAETSDILHRMVIHVFSLQQMTAHKIYIHSYNTATIFHELVYKQTKIISSNQELIYEGRRLVLEPGRLAQHFPKTTEENPIFVVSREPLNTIGLIYEKISLPKVHPRYDLDGDASMAKAITGVVCYACRIASTLLLYQELMRKGIRWLIELIKDDYNETVHKKTEVVITLDFCIRNIEKTVKVYEKLMKINLEAAELGEISDIHTKLLRLSSSQGTIETSLQDIDSRLSPGGSLADAWAHQEGTHPKDRNVEKLQVLLNCMTEIYYQFKKDKAERRLAYNEEQIHKFDKQKLYYHATKAMTHFTDECVKKYEAFLNKSEEWIRKMLHLRKQLLSLTNQCFDIEEEVSKYQEYTNELQETLPQKMFTASSGIKHTMTPIYPSSNTLVEMTLGMKKLKEEMEGVVKELAENNHILERFGSLTMDGGLRNVDCL
Take B3: the binding entry with GST-HA-CLNS1A is listed as “no binding (tested: 0.25 μg GST-TBK1 with 0.5 μg HA-CLNS1A)”; in assay [3], “binds”.

The values are drawn from publication PMC12212275.
